Molecules are shown by their SMILES. Hit rate of the full screen: of about 39,000 compounds, about 220 (0.56%) showed activity. The list shows a part of the results.
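Also: static incubation at 37 °C against the wild-type strain, values averaged over two biological replicates.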

The subject of the assay is Escherichia coli K-12 BW25113. Description: relative growth (OD600 normalised to plate interquartile mean) (fraction); higher = less growth inhibition, active = 0.2 or less. To be noted: 50 µM; LB; incubation time: overnight (16-24 h).
For `CO[C@H]1CN(C)C(=O)c2ccc(NC(=O)Nc3cccc(F)c3)cc2OC[C@@H](C)N(C(=O)Nc2c(C)noc2C)C[C@H]1C`, the relative growth was inactive: 0.953.
In the case of `CNC(=O)Cn1c(=O)c2c(OC)ccnc2n(C)c1=O`, the relative growth was inactive: 0.99.
In the case of `C[C@@H]1CCCCO[C@@H](CN(C)C(=O)Nc2cccc3ccccc23)[C@H](C)CN([C@@H](C)CO)C(=O)c2cc(NC(=O)Nc3ccc(F)cc3)ccc2O1`, the relative growth was inactive: 1.09.
With `C[C@H](CO)N1C[C@H](C)[C@@H](CN(C)Cc2ccc(Oc3ccccc3)cc2)Oc2ccc(NC(=O)Nc3ccc4c(c3)OCO4)cc2C1=O`, the relative growth was inactive: 1.02.
For the compound `C[C@H](CO)N1C[C@H](C)[C@H](CN(C)S(=O)(=O)c2cn(C)cn2)OCc2cnnn2CCCC1=O`, the relative growth is inactive: 1.01.
On to `COc1ccc(S(=O)(=O)Nc2cccc3c2O[C@@H](CN(C)Cc2ccc(Oc4ccccc4)cc2)[C@@H](C)CN([C@@H](C)CO)C3=O)cc1`, for which the relative growth is inactive: 1.02.
For `C[C@@H]1CCCCO[C@@H](CN(C)Cc2ccccc2)[C@@H](C)CN([C@@H](C)CO)C(=O)c2cc(NS(=O)(=O)c3ccc(F)cc3)ccc2O1`, the relative growth was inactive: 0.984.
`O=C(C[C@@H]1CC[C@@H]2[C@H](COC[C@@H](O)CN2C(=O)c2ccccc2)O1)N1CCOCC1`: the relative growth is inactive: 0.976.
Consider `Cc1ccc(S(=O)(=O)Nc2ccc3c(c2)C(=O)N([C@@H](C)CO)C[C@@H](C)[C@H](CN(C)C(=O)Nc2ccc(C(F)(F)F)cc2)O3)cc1`, for which the relative growth is inactive: 0.9.
Turning to `O=C(C[C@H]1C[C@@H]2c3cc(NC(=O)c4ccc5c(c4)OCO5)ccc3O[C@@H]2[C@H](CO)O1)NCCN1CCCCC1`, the relative growth was inactive: 0.975.
For the compound `CN1C(C(=O)Nc2ccccn2)=C(O)c2ccccc2S1(=O)=O`, the relative growth is inactive: 0.938.
For the compound `CC(=O)OCC(=O)C1(O)CCC2C3CCC4CC(O)CCC4(C)C3C(=O)CC21C` (configuration not stated), the relative growth is inactive: 1.11.
`O=C(C[C@@H]1CC[C@@H](NS(=O)(=O)c2ccc(F)cc2)[C@@H](CO)O1)N1CCC(Cc2ccccc2)CC1`: the relative growth was inactive: 0.987.
In the case of `COCC(=O)N1C[C@@H](C)[C@H](OC)CN(C)C(=O)c2ccc(NC(=O)Nc3ccccc3)cc2OC[C@H]1C`, the relative growth is inactive: 1.01.
In the case of `C[C@H]1CN([C@@H](C)CO)C(=O)c2cc(NC(=O)Cn3cnnn3)ccc2O[C@@H]1CN(C)Cc1ccc(C(=O)O)cc1` it was inactive: 0.998; in that of `C[C@@H]1CN([C@H](C)CO)C(=O)c2c(c3ccccc3n2C)-c2ccccc2CO[C@H]1CN(C)C(=O)Nc1ccccc1`, inactive: 0.96; in that of `O=C(C[C@@H]1C[C@H]2c3cc(NC(=O)Nc4ccccc4)ccc3O[C@H]2[C@H](CO)O1)NCCN1CCCCC1`, inactive: 1.01.
`COc1ccc2c3c(n(c2c1)C)[C@H](CO)N(C[C@]13CN(CC2CCOCC2)C1)C(=O)Cc1ccccn1`: the relative growth is inactive: 0.969.
`COc1cccc(NC(=O)N2C[C@@H](O)COC[C@H]3O[C@@H](CC(=O)NC4Cc5ccccc5C4)CC[C@@H]32)c1`: the relative growth is inactive: 0.988.
Take `C[C@@H]1CCCCO[C@@H](CN(C)S(=O)(=O)c2cccs2)[C@H](C)CN([C@@H](C)CO)C(=O)c2cc(NS(=O)(=O)c3cn(C)cn3)ccc2O1`: the relative growth was inactive: 1.
As for `COc1ccc(S(=O)(=O)Nc2ccc3c(c2)C(=O)N([C@@H](C)CO)C[C@H](C)[C@@H](CN(C)S(=O)(=O)c2ccc(Cl)cc2)OCCCC[C@@H](C)O3)cc1`, the relative growth was inactive: 1.02.
In the case of `CO[C@H]1CN(C)C(=O)c2cc(NC(=O)C3CC3)ccc2OC[C@@H](C)N(C(=O)Cc2ccccn2)C[C@@H]1C` it was inactive: 0.981; in that of `C[C@@H]1CCCCO[C@H](CN(C)Cc2ccc(C(=O)O)cc2)[C@@H](C)CN([C@@H](C)CO)C(=O)c2cc(NC(=O)c3ccccc3)ccc2O1`, inactive: 1.01.
With `COc1ccc(NC(=O)Nc2cccc3c2O[C@@H](CN(C)Cc2ccc(-c4ccccc4)cc2)[C@H](C)CN([C@H](C)CO)C3=O)cc1`, the relative growth is inactive: 1.01.
In the case of `C[C@@H]1CCCCO[C@@H](CN(C)C(=O)Cc2ccccc2)[C@H](C)CN([C@@H](C)CO)C(=O)c2cc(NC(=O)NC3CCCCC3)ccc2O1` it was inactive: 1; in that of `OCc1cccc(CO)c1F`, inactive: 1.04; in that of `NCc1cnn(-c2ccc(F)cc2)c1`, inactive: 0.988.
Turning to `C[C@@H]1CN([C@H](C)CO)C(=O)c2cc(NC(=O)Nc3cccc4ccccc34)ccc2O[C@H]1CN(C)Cc1ccc(Oc2ccccc2)cc1`, the relative growth was inactive: 1.01.
Turning to `O=C(O)Cn1nnnc1-c1ccc(F)cc1`, the relative growth is inactive: 0.995.
Take `COc1ccccc1-c1cnc2c(c1)C(=O)N([C@@H](C)CO)C[C@H](C)[C@H](CN(C)C(=O)c1cccnc1)O2`: the relative growth is inactive: 1.01.
In the case of `C[C@H]1CN([C@@H](C)CO)S(=O)(=O)c2ccc(C3=CCCC3)cc2O[C@H]1CN(C)C(=O)c1cnccn1` it was inactive: 1.02; in that of `Cc1cn(CC(=O)NCCN)c(=O)[nH]c1=O`, inactive: 0.97.
Consider `C[C@@H]1CN([C@@H](C)CO)C(=O)c2c(c3ccccc3n2C)-c2ccccc2CO[C@@H]1CN(C)Cc1cccc(O)c1`, for which the relative growth was inactive: 0.956.
In the case of `CC(C)CN1C(=O)C[C@@H](N2CCOCC2)C1=O`, the relative growth was inactive: 1.01.
In the case of `O=C(O)c1ccc(-n2nc(-c3ccccc3O)nc2-c2ccccc2O)cc1` it was inactive: 1.04; in that of `Cc1ccc(S(=O)(=O)Nc2ccc3c(c2)CC(=O)N([C@H](C)CO)C[C@H](C)[C@H](CN(C)S(=O)(=O)c2cn(C)cn2)O3)cc1`, inactive: 0.996; in that of `C[C@@H]1CN([C@@H](C)CO)C(=O)c2cccc(NC(=O)Nc3ccccc3)c2O[C@H]1CN(C)Cc1ccc(Cl)c(Cl)c1`, inactive: 0.955.
With `CC(C)NC(=O)N(C)C[C@H]1OCc2cnnn2CCCC(=O)N([C@H](C)CO)C[C@H]1C`, the relative growth is inactive: 1.03.
As for `CC(C)(C)[S@@](=O)N1Cc2cc(C(=O)NCCc3ccncc3)nc(-c3cccc(-c4ccc(C#N)cc4)c3)c2[C@H]1CCO`, the relative growth is inactive: 1.01.
In the case of `CC(=O)N1C[C@@H]2CN(c3ncccn3)CC[C@H]2C1` it was inactive: 1; in that of `C[C@H](CO)N1C[C@H](C)[C@@H](CN(C)Cc2ccc(-c3ccccc3)cc2)Oc2ccc(NS(=O)(=O)c3cccs3)cc2C1=O`, inactive: 0.996; in that of `C[C@@H]1CN([C@@H](C)CO)C(=O)Cc2cc(NC(=O)C3CCCCC3)ccc2O[C@H]1CN(C)C(=O)Nc1cccc2ccccc12`, inactive: 1.01.
In the case of `C[C@@H]1CCCCO[C@H](CN(C)C(=O)Nc2ccc(F)cc2)[C@H](C)CN([C@H](C)CO)C(=O)c2cc(NC(=O)c3ccccc3)ccc2O1` it was inactive: 1.02; in that of `COc1ccc(NC(=O)Nc2ccc3c(c2)C(=O)N([C@@H](C)CO)C[C@@H](C)[C@H](CN(C)C(=O)Nc2ccc4c(c2)OCO4)OCCCC[C@@H](C)O3)cc1`, inactive: 1.03.
For the compound `Cn1c(=O)sn(-c2ccccc2)c1=O`, the relative growth was inactive: 1.03.
In the case of `C[C@@H]1CC=CC[C@H](c2ccc3c(c2)OCO3)NC(=O)[C@@H](Cc2ccccc2)N(C)C(=O)c2ccccc2O1` it was inactive: 1.05.
With `C[C@H](CO)N1C[C@H](C)[C@@H](CN(C)Cc2ccc(C(F)(F)F)cc2)Oc2ccc(NC(=O)CCCCCC(=O)Nc3ccccc3N)cc2C1=O`, the relative growth was inactive: 1.04.
In the case of `C[C@H](CO)N1C[C@H](C)[C@H](CN(C)C(=O)Nc2ccc3c(c2)OCO3)Oc2ccc(NC(=O)Nc3cccc4ccccc34)cc2CC1=O` it was inactive: 1.
Regarding `C[C@@H]1CN([C@H](C)CO)C(=O)c2cc(NC(=O)Cc3ccccc3)ccc2O[C@@H](C)CCCCO[C@H]1CN(C)Cc1ccc2c(c1)OCO2`, the relative growth is inactive: 1.
In the case of `COc1ccc([C@H]([C@H](Cc2ccccc2)OC(C)=O)N(C/C=C\[C@@H](O)c2ccccc2)[C@@H](Cc2ccccc2)C(OC)OC)cc1` it was inactive: 0.958; in that of `CN1C(=O)[C@@]2(c3cc(Cl)ccc31)[C@H](C(=O)O)[C@H]1C(=O)O[C@H](c3ccccc3)[C@H](c3ccccc3)N1[C@@H]2c1ccc(F)cc1`, inactive: 0.947; in that of `CCCCCC(=O)Cc1cc(O)cc(O)c1C(=O)Oc1cc(CC(=O)CCCCC)c(C(=O)O)c(OC)c1`, inactive: 0.774.
In the case of `COc1ccc(N2C(=O)N3CCc4cc(OC)c(OC)cc4[C@@H]3[C@@H](Cc3ccccc3)[C@H]2COC(=O)NCCCCCC(=O)NO)cc1` it was inactive: 0.981; in that of `COc1ccc([C@H]2CNCCN2)cc1`, inactive: 0.986.
In the case of `COc1ccc(S(=O)(=O)Nc2ccc3c(c2)C(=O)N([C@@H](C)CO)C[C@@H](C)[C@H](CN(C)Cc2ccccc2)OCCCC[C@H](C)O3)cc1` it was inactive: 1.02; in that of `COc1ccc(-c2coc3cc(O)ccc3c2=O)c(O)c1O`, inactive: 1.11; in that of `Cc1nnc(SCC2=C(C(=O)[O-])N3C(=O)C(NC(=O)Cn4cnnn4)C3SC2)s1.[Na+]` (configuration not stated), active: 0.0433.
For `CO[C@@H]1CN(C)C(=O)c2cc(NC(=O)c3ccc(F)cc3)ccc2OC[C@@H](C)N(C(=O)CN(C)C)C[C@H]1C`, the relative growth was inactive: 0.988.
On to `C[C@H](CO)N1C[C@H](C)[C@@H](CN(C)C(=O)Nc2ccc(C(F)(F)F)cc2)Oc2ncc(C3=CCCC3)cc2C1=O`, for which the relative growth is inactive: 1.03.
In the case of `Cc1noc(C)c1NC(=O)Nc1ccc2c(c1)C(=O)N([C@@H](C)CO)C[C@@H](C)[C@H](CN(C)CC1CCCCC1)OCCCC[C@@H](C)O2` it was inactive: 0.968.
Take `Cc1noc(C)c1S(=O)(=O)Nc1ccc2c(c1)CC(=O)N([C@H](C)CO)C[C@@H](C)[C@H](CN(C)Cc1ccc(-c3ccccc3)cc1)O2`: the relative growth was inactive: 0.976.
As for `C[C@@H]1CN([C@@H](C)CO)C(=O)c2cc(NC(=O)CCC(F)(F)F)ccc2O[C@@H]1CN(C)Cc1ccc(C(F)(F)F)cc1`, the relative growth was inactive: 0.992.

(Values after the supplement of paper PMC9446081.)
